Source: patent publication US20260137794A1, “LIGAND-DRUG CONJUGATE AND USE THEREOF” (SYSTIMMUNE, INC., priority 2022, published 2026)

B1: ANTI-CD33-Ex01 (10) (other)
light: DIQLTQSPSTLSASVGDRVTITCRASESLDNYGIRFLTWFQQKPGKAPKLLMYAASNQGSGVPSRFSGSGSGTEFTLTISSLQPDDFATYYCQQTKEVPWSFGQGTKVEVKRTVAAPSVFIFPPSDEQLKSGTASVVCLLNNFYPREAKVQWKVDNALQSGNSQESVTEQDSKDSTYSLSSTLTLSKADYEKHKVYACEVTHQGLSSPVCTKSFNRGEC
heavy: EVQLVQSGAEVKKPGSSVKVSCKASGYTITDSNIHWVRQAPGQSLEWIGYIYPYNGGTDYNQKFKNRATLTVDNPTNTAYMELSSLRSEDTAFYYCVNGNPWLAYWGQGTLVTVSS[human IgG1 constant region not spelt out]
modifications: Ex01 linker-drug coupled via cysteine thiol groups; total DAR 10 per antibody; positions not given
notes: also called mono-drug ADC
B2: ANTI-CD33-R01-1 (2)-Ex01 (8) (other)
light: B1 light
heavy: B1 heavy
modifications: R01-1 (2 per antibody) and Ex01 (8 per antibody) linker-drugs coupled via cysteine thiol groups; positions not given
notes: also called ANTI-CD33-R01-1-Ex01; dual-drug ADC
B3: ANTI-CD33-Ex01 (2)-R01-1 (8) (other)
light: B1 light
heavy: B1 heavy
modifications: Ex01 (2 per antibody) and R01-1 (8 per antibody) linker-drugs coupled via cysteine thiol groups; positions not given
notes: also called ANTI-CD33-Ex01-R01-1; dual-drug ADC
B4: ANTI-Trop2-1 mAb: Naked anti-Trop2 antibody; light chain SEQ ID NO: 3, heavy chain SEQ ID NO: 4 (antibody)
heavy: QVQLVQSGAEVKKPGASVKLSCKASGYTFTSFDINWVRQAPEQRLEWMGWIFPGDGNTKYSQKFQGRATITRDTSASTAYMELSSLRSEDTAVYYCVRGEALYYFDYWGQGTLVTVSS[human IgG1 constant region not spelt out]
light: DIQMTQSPSSLSASVGDRVTITCRASQDINKYLAWYQQKPGKVPKLLIYSTSTLQSGVPSRFSGSGSGTDFTLTISSLQPEDVATYYCLQYDDLFTFGQGTKLEIKRTVAAPSVFIFPPSDEQLKSGTASVVCLLNNFYPREAKVQWKVDNALQSGNSQESVTEQDSKDSTYSLSSTLTLSKADYEKHKVYACEVTHQGLSSPVTKSFNRGEC
B5: ANTI-Trop2-2 mAb: Naked anti-Trop2 antibody; light chain SEQ ID NO: 5, heavy chain SEQ ID NO: 6 (antibody)
heavy: B4 heavy
light: DIQMTQSPSSLSASVGDRVTITCRASQDINKYLAWYQQKPGKVPKLLIYSTSTLQSGVPSRFSGSGSGTDFTLTISSLQPEDVATYYCLQYDDLFTFGQGTKLEIKRTVAAPSVFIFPPSDEQLKSGTASVVCLLNNFYPREAKVQWKVDNALQSGNSQESVTEQDSKDSTYSLSSTLTLSKADYEKHKVYACEVTHQGLSSPVCTKSFNRGEC

Experiments:
[1] = molecular target: recombinant human CD33 protein (human, UniProt P20138 18-259, limits assumed); experiment: ELISA, recombinant human CD33 coated on the plate, conjugate titrated 3-fold from 2 ug/mL
[2] = test system: Trop2 high-expression cell line and negative cell line; experiment: Trop2 cell killing experiment, conclusion over the 2 cell models; format: cell-based, Human; conditions: in words; N87 and A431+SW620
Experimental: Pharmacodynamic test at cellular level: cell plating was performed on a 96-well plate in a certain density. After the cells adhered to the wall (usually taking at least 4 h), a series of drugs in several folds of dilution were added to each well plate to act for a certain period of time, for killing the cells. At the end of action of the drugs, a certain amount of MTS was added to react at 37° C. under 5% CO2 for 1-4 h. After color development using the MTS reagent, the OD 490 nm absorbance value was detected using a microplate reader, and then the IC50 for cell killing was analyzed and calculated. […]
Taking a Trop2 high-expression cell line N87 and a heterogeneous tumor cancer cell A431+SW620 as target cells respectively, the Trop2 expression level of the target cell was firstly determined by flow analysis, and then the cell killing activity of the Trop2 dual-drug ADC was evaluated by MTS method. […]

[3] = test system: heterogeneous tumor cancer cell A431+SW620; experiment: Trop2 cell killing experiment by MTS method, A431+SW620; format: cell-based, Human; conditions: A431 + SW620, Trop2 negative, 5 days, read-out: Test drug IC50
Experimental: (§1) Pharmacodynamic test at cellular level: cell plating was performed on a 96-well plate in a certain density. After the cells adhered to the wall (usually taking at least 4 h), a series of drugs in several folds of dilution were added to each well plate to act for a certain period of time, for killing the cells. At the end of action of the drugs, a certain amount of MTS was added to react at 37° C. under 5% CO2 for 1-4 h. After color development using the MTS reagent, the OD 490 nm absorbance value was detected using a microplate reader, and then the IC50 for cell killing was analyzed and calculated.
(§2) Before addition, according to the concentration of each test sample, a drug (5×mother liquor concentration) was prepared using a preheated 1% FBS culture medium according to the initial concentration of 5.0 μM, and then diluted according to 10 folds of gradient concentration, totaling 8 detection points, followed by standing for later use. During the preparation, each concentration was uniformly mixed using an oscillator, specifically, oscillating for 2-3 sec at a time, with an interval of 1 sec, and then oscillating again, repeating 2-3 times.
(§3) The final concentration of the antibody and the antibody conjugated drug was 0 (Vehicle), 0.6 pM, 4.25 pM, 29.75 pM, 0.21 nM, 1.46 nM, 10.20 nM, 71.43 nM, 500 nM. […]

N87 = experiment: Trop2 cell killing experiment by MTS method, N87; format: cell-based, Human; conditions: N87, Trop2 high expression, 5 days, read-out: Test drug IC50
Experimental: as §1, §2, §3

UniProt P20138, sequence (P20138 18-259 limits assumed): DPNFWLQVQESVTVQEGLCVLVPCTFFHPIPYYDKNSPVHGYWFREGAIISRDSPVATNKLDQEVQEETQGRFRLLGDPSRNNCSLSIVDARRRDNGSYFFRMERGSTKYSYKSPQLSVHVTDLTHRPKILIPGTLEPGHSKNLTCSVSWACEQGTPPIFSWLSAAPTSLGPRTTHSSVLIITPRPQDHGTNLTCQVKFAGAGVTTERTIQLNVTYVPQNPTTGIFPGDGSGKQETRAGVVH

| Molecule | binding result [1] | killing activity against the two cell lines [2] | IC50 [3] | IC50 (N87) |
| --- | --- | --- | --- | --- |
| B1 | binds | – | – | – |
| B2 | binds | – | – | – |
| B3 | binds | – | – | – |
| B4 | – | no significant killing activity | > 500 nM | > 500 nM |
| B5 | – | no significant killing activity | > 500 nM | > 500 nM |
